{"source": "the supplement of paper PMC3334620", "note": "The full ranking holds about 33,000 sequences; the median of “E-score (-0.5 to 0.5)” is about -0.054, and the highest 2% start at about 0.39. Some of the results follow."}
{"biological_target": "Ylr278c (UniProt Q05854)", "assay": "PBM E-score (8-mer binding enrichment) (E-score (-0.5 to 0.5)); higher = stronger / more preferred TF binding; most listed sequences are background and not binding sites", "conditions": "protein concentration: 200 nM; construct: GST-DNA-binding domain", "outline": "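E-scores (a modified Wilcoxon-Mann-Whitney statistic) were assigned by the Universal PBM Analysis Suite to every ungapped eight-base word pooled with its reverse complement. The input came from universal all-10-mer Agilent arrays made double-stranded by primer extension and probed with GST-tagged yeast transcription factors at about 100-200 nM. Fluorescent anti-GST detected bound protein, and masliner normalised the scans.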"}
{"sequence": "CTCTTGAA", "PBM E-score": -0.182}
{"sequence": "AATTAGAC", "PBM E-score": -0.202}
{"sequence": "ATGACTAG", "PBM E-score": -0.27}
{"sequence": "AGGAGCGA", "PBM E-score": -0.0963}
{"sequence": "ATTGGTCA", "PBM E-score": -0.283}
{"sequence": "ATCCGGCA", "PBM E-score": 0.369}
{"sequence": "ATCATCGA", "PBM E-score": -0.0451}
{"sequence": "TACGCAAA", "PBM E-score": -0.262}
{"sequence": "ATAGAACG", "PBM E-score": 0.0158}
{"sequence": "AGTCGAGA", "PBM E-score": -0.178}
{"sequence": "TAGTGGCA", "PBM E-score": -0.163}
{"sequence": "AAAGGCAG", "PBM E-score": -0.128}
{"sequence": "CAACGATC", "PBM E-score": -0.0409}
{"sequence": "TCAACGGA", "PBM E-score": 0.311}
{"sequence": "GGTCGGCA", "PBM E-score": 0.186}
{"sequence": "ACATCTTC", "PBM E-score": 0.204}
{"sequence": "AAGAGGCT", "PBM E-score": -0.337}
{"sequence": "GATCGCGC", "PBM E-score": 0.0937}
{"sequence": "TCCCTAGA", "PBM E-score": -0.202}
{"sequence": "CGTTCATA", "PBM E-score": -0.0883}
{"sequence": "CAACCTGA", "PBM E-score": -0.248}
{"sequence": "CACGATAA", "PBM E-score": 0.065}
{"sequence": "CATGCCGC", "PBM E-score": 0.292}
{"sequence": "ACCGTTAA", "PBM E-score": -0.0737}
{"sequence": "GAGTTTGA", "PBM E-score": 0.138}
{"sequence": "ACGGAAAC", "PBM E-score": 0.278}
{"sequence": "ACCTGGCC", "PBM E-score": -0.0558}
{"sequence": "CATATACG", "PBM E-score": -0.143}
{"sequence": "ATTTATCG", "PBM E-score": 0.133}
{"sequence": "CGAGTGCC", "PBM E-score": 0.0574}
{"sequence": "AACAAGGA", "PBM E-score": -0.046}
{"sequence": "GGAGCTCC", "PBM E-score": 0.348}
{"sequence": "CCTGGGCG", "PBM E-score": -0.139}
{"sequence": "GCATACTA", "PBM E-score": 0.0868}
{"sequence": "CCTACCAG", "PBM E-score": -0.338}
{"sequence": "CCTAGCTA", "PBM E-score": -0.246}
{"sequence": "CCGGGTCA", "PBM E-score": 0.275}
{"sequence": "CAGAAAGA", "PBM E-score": -0.122}
{"sequence": "CACATTTA", "PBM E-score": -0.336}
{"sequence": "TGAAATCA", "PBM E-score": 0.00132}
{"sequence": "ACCGATGA", "PBM E-score": 0.102}
{"sequence": "ATACAACC", "PBM E-score": -0.0329}
{"sequence": "CCCATTCA", "PBM E-score": 0.086}
{"sequence": "ACTTGAAA", "PBM E-score": 0.105}
{"sequence": "AGGTTGTG", "PBM E-score": -0.229}
{"sequence": "ATGGCCGC", "PBM E-score": 0.172}
{"sequence": "CACGTAGA", "PBM E-score": -0.227}
{"sequence": "CGTTTGGC", "PBM E-score": 0.0137}
{"sequence": "GAACCCCA", "PBM E-score": 0.104}
{"sequence": "CGACTAAC", "PBM E-score": 0.065}
{"sequence": "AATTCCGC", "PBM E-score": 0.456}
{"sequence": "AAAAGCAT", "PBM E-score": -0.132}
{"sequence": "ATGACCAC", "PBM E-score": -0.129}
{"sequence": "GATTCAAC", "PBM E-score": 0.168}
{"sequence": "GTGCGGAA", "PBM E-score": 0.265}
{"sequence": "GGACCATA", "PBM E-score": 0.0486}
{"sequence": "AGGGACAC", "PBM E-score": -0.0392}
{"sequence": "GGGGCTTA", "PBM E-score": 0.0287}
{"sequence": "CAGTCTGC", "PBM E-score": -0.117}
{"sequence": "AAACACCG", "PBM E-score": 0.39}
{"sequence": "ACGATAGC", "PBM E-score": -0.0213}
{"sequence": "AGCGACGC", "PBM E-score": -0.00634}
{"sequence": "ACTTTAGA", "PBM E-score": -0.0897}
{"sequence": "ACTTCACG", "PBM E-score": -0.163}
{"sequence": "ACGCATTC", "PBM E-score": -0.00202}
{"sequence": "CACAGATA", "PBM E-score": -0.257}
{"sequence": "GACAGCGA", "PBM E-score": 0.0691}
{"sequence": "GGATCACC", "PBM E-score": 0.0883}
{"sequence": "CTTAATTC", "PBM E-score": 0.0471}
{"sequence": "GGTTATTA", "PBM E-score": 0.0611}
{"sequence": "ATCACCCA", "PBM E-score": -0.0389}
{"sequence": "GTACGACA", "PBM E-score": -0.0993}
{"sequence": "GGAATCCC", "PBM E-score": 0.201}
{"sequence": "ACCTATTG", "PBM E-score": -0.19}
{"sequence": "GCGGCTCC", "PBM E-score": 0.163}
{"sequence": "AGCACCCG", "PBM E-score": 0.11}
{"sequence": "CCGTGGCA", "PBM E-score": 0.0148}
{"sequence": "CGCTTAGC", "PBM E-score": 0.0712}
{"sequence": "ACGAATAT", "PBM E-score": -0.0546}
{"sequence": "AGCTCTAT", "PBM E-score": -0.096}
{"sequence": "AGGTAAAC", "PBM E-score": 0.0785}
{"sequence": "CGTGCAAG", "PBM E-score": -0.0568}
{"sequence": "CATATCCG", "PBM E-score": 0.289}
{"sequence": "GAATCCAC", "PBM E-score": -0.141}
{"sequence": "CAACGTGC", "PBM E-score": -0.0131}
{"sequence": "ATATAGCG", "PBM E-score": -0.0634}
{"sequence": "CTCCGTCC", "PBM E-score": 0.449}
{"sequence": "AGCACCAT", "PBM E-score": -0.317}
{"sequence": "AGCTGTCA", "PBM E-score": -0.248}
{"sequence": "AACGGCTC", "PBM E-score": 0.136}
{"sequence": "CGCCTTAG", "PBM E-score": 0.0604}
{"sequence": "CTCCACTC", "PBM E-score": -0.228}
{"sequence": "AACGCCCA", "PBM E-score": -0.0482}
{"sequence": "CAGAAACC", "PBM E-score": -0.0224}
{"sequence": "CGTTCGGA", "PBM E-score": 0.41}
{"sequence": "CACAGGGA", "PBM E-score": -0.197}
{"sequence": "CGTGCGTC", "PBM E-score": 0.2}
{"sequence": "CATTCACC", "PBM E-score": 0.195}
{"sequence": "CAAGGCTG", "PBM E-score": -0.256}
{"sequence": "GGCAGTCA", "PBM E-score": -0.052}
{"sequence": "AACGTACA", "PBM E-score": -0.094}
{"sequence": "GGTAACTA", "PBM E-score": 0.134}
{"sequence": "CGGCCGGC", "PBM E-score": 0.409}
{"sequence": "CAGGAAAG", "PBM E-score": -0.211}
{"sequence": "CCTAAAAG", "PBM E-score": -0.381}
{"sequence": "ACGCGTGA", "PBM E-score": 0.0234}
{"sequence": "ACTGTGGC", "PBM E-score": -0.32}
{"sequence": "CCTAGCCC", "PBM E-score": -0.0868}
{"sequence": "AAAGATGT", "PBM E-score": -0.153}
{"sequence": "GAGGAGCC", "PBM E-score": -0.0931}
{"sequence": "CGTTGATC", "PBM E-score": -0.0672}
{"sequence": "CACAGGCA", "PBM E-score": -0.317}
{"sequence": "AACGGAGA", "PBM E-score": 0.393}
{"sequence": "ATATCGCG", "PBM E-score": 0.226}
{"sequence": "CAATCTAA", "PBM E-score": -0.0716}
{"sequence": "AGTGTATA", "PBM E-score": -0.232}
{"sequence": "GAGTTCGC", "PBM E-score": 0.148}
{"sequence": "ACTCCAGG", "PBM E-score": 0.00347}
{"sequence": "GCTAGTAA", "PBM E-score": -0.103}
{"sequence": "CGCGTGAG", "PBM E-score": 0.0538}
{"sequence": "AGCGAGCT", "PBM E-score": -0.00642}
{"sequence": "AGGTTCAC", "PBM E-score": -0.128}
{"sequence": "AAACTACT", "PBM E-score": -0.0563}
{"sequence": "GACCGGTA", "PBM E-score": 0.0914}
{"sequence": "AACACGGG", "PBM E-score": -0.0478}
{"sequence": "GGGTCATA", "PBM E-score": -0.111}
{"sequence": "ACAAATCC", "PBM E-score": 0.171}
{"sequence": "CCGTAAGC", "PBM E-score": -0.0111}
{"sequence": "GTGGTCGA", "PBM E-score": -0.345}
{"sequence": "AGACGCAC", "PBM E-score": 0.0218}
{"sequence": "CCTCGCCA", "PBM E-score": -0.241}
{"sequence": "GGCGGCTA", "PBM E-score": 0.153}
{"sequence": "AGATCCTA", "PBM E-score": -0.281}
{"sequence": "ACCCACGC", "PBM E-score": -0.057}
{"sequence": "CACCTTGA", "PBM E-score": -0.145}
{"sequence": "TTCGAGAA", "PBM E-score": -0.193}
{"sequence": "CCACGTGG", "PBM E-score": -0.344}
{"sequence": "GACTGGCC", "PBM E-score": 0.127}
{"sequence": "CCACGTGC", "PBM E-score": -0.185}
{"sequence": "GCATCAAA", "PBM E-score": -0.126}
{"sequence": "AAGACTAC", "PBM E-score": -0.227}
{"sequence": "ATAGACTA", "PBM E-score": -0.343}
{"sequence": "CCCACTAC", "PBM E-score": -0.109}
{"sequence": "CATCTACA", "PBM E-score": -0.0614}
{"sequence": "AAGCAAGT", "PBM E-score": -0.117}
{"sequence": "ATCCAAGC", "PBM E-score": -0.11}
{"sequence": "CCGAGTCG", "PBM E-score": 0.263}
{"sequence": "TAACGGCA", "PBM E-score": 0.00445}
{"sequence": "AACCTGCG", "PBM E-score": 0.108}
{"sequence": "ACTCTTAA", "PBM E-score": -0.115}
{"sequence": "ACTCATGC", "PBM E-score": -0.193}
{"sequence": "ACACTCAC", "PBM E-score": 0.025}
{"sequence": "CGCTTTCC", "PBM E-score": 0.143}
{"sequence": "CAGCCAAA", "PBM E-score": -0.0295}
{"sequence": "AAGTGGTG", "PBM E-score": 0.00804}
{"sequence": "CATAAACA", "PBM E-score": -0.0795}
{"sequence": "ACAGGTCT", "PBM E-score": -0.106}
{"sequence": "GTGGAAAC", "PBM E-score": 0.00381}
{"sequence": "GAGTACAC", "PBM E-score": -0.0243}
{"sequence": "CTAGGTTA", "PBM E-score": 0.0674}
{"sequence": "CGTTTAGC", "PBM E-score": 0.0278}
{"sequence": "AAATTGAG", "PBM E-score": -0.067}
{"sequence": "ATTAGCGG", "PBM E-score": 0.156}
{"sequence": "AACCCTTG", "PBM E-score": -0.174}
{"sequence": "ATCAGGCG", "PBM E-score": -0.00289}
{"sequence": "ATAACCGC", "PBM E-score": 0.0605}
{"sequence": "AATGCACA", "PBM E-score": -0.0771}
{"sequence": "AGCTAATA", "PBM E-score": -0.233}
{"sequence": "CATCGGAA", "PBM E-score": 0.396}
{"sequence": "CGAATGCC", "PBM E-score": 0.179}
{"sequence": "CCTCATCG", "PBM E-score": 0.0491}
{"sequence": "CTTTAGTC", "PBM E-score": -0.0851}
